This note sets out measurements from patent US9433687B2, “Anti-Notch3 antibodies and antibody-drug conjugates” (Pfizer Inc., priority 2012, dated 2016).

One assay deals with OVCAR3 (ovarian cancer). Briefly: In vitro cytotoxicity (MTS), OVCAR3. The format is cell-based, human. As to conditions: Table 14; LP = lacked potency. The method, then: (§1) The effects of anti-Notch3 ADCs were assessed on 1) cell lines endogenously expressing Notch3 protein: HCC2429 (lung cancer), OVCAR3 (ovarian cancer) and MDA-MB-468 (breast cancer), 2) cell lines engineered to over-express full length human Notch3 protein: MDA-MB-468/hNotch3 and U2OS/hNotch3, and 3) a negative control cell line (SW900) using an MTS cellular viability indicator (Promega, Madison, Wis.). These cell lines were cultured with increasing concentrations of anti-Notch3 ADCs comprising rat-human chimeric anti-Notch3 antibodies, ch28 and ch75, and humanized anti-Notch3 antibodies, hu28 and hu75, conjugated to various linker-payload combinations of the present invention. As a specificity control for the anti-Notch3-ADCs, non-targeted control-ADCs (huNeg8.8-ADCs or ch2H6-ADCs) were also tested on the same cell lines. After four days, viability of each culture was assessed. IC50 values were calculated by logistic non-linear regression, model #203 with XL fit v4.2 (IDBS, Guildford, Surry, UK) and presented as ng Ab/mL. The drug antibody ratio (DAR) is also provided.
This process generated the anti-Notch3 cysteine mutant ADCs: hu28-(L443C)-vc0101 and hu28-(L443C/κK183C)-vc0101. The activity of the anti-Notch3 cysteine mutant ADCs were assessed on cell lines endogenously expressing Notch3 protein: HCC2429 (lung cancer) and OVCAR3 (ovarian cancer) using an MTS cellular viability indicator as described in previous Examples.

Assay [1] has as its target T1, MDA-MB-468/hNotch3 (Homo sapiens, UniProt Q9UM47).
T1 construct: cell lines engineered to over-express full length human Notch3 protein: MDA-MB-468/hNotch3 and U2OS/hNotch3; expressed in transfected cells; host or cells: MDA-MB-468
The assay can be described thus: In vitro cytotoxicity (MTS), MDA-MB-468/hNotch3. The format is cell-based. As to conditions: Table 14; two individual repeats; LP = lacked potency. How it is done: as §1

Another assay deals with T2, OVCAR3 (Homo sapiens, UniProt Q9UM47).
T2 construct: Notch3 endogenously expressing cells MDA-MB-468, HCC2429 and OVCAR3; endogenous in cells; host or cells: OVCAR3
Briefly: Cytotoxicity (MTS) after control or Notch3 siRNA, OVCAR3. As to conditions: 96 hours; for IC50 (ng Ab/mL) ± S.E.M., OVCAR3 Notch3 siRNA: Notch3 siRNA knockdown. The format is cell-based. How it is done: (§2) Notch3 knockdown with siRNAs was used to confirm that the in vitro cytotoxicity of anti-Notch3 ADCs was dependent on the expression of the Notch3 protein. siRNA transfections were generated using ON-TARGET plus SMART pool human Notch3 (L-011093-00), ON-TARGET plus Control Non-Targeting pool (D-001810-10) (Thermo Scientific Dharmacon) and Lipofectamine RNAiMAX Reagent (Invitrogen). Two to 2.5×10^6 cells of HCC2429, OVCAR3 and MDA-MB-468/hNotch3 cells were plated in 10 cm dishes in growth medium without antibiotics the day before transfection. The next day fresh medium without antibiotics was added. The siRNAs and the Lipofectamine RNAiMAX were diluted in OPTI-MEM media and used as per the manufacturer's specifications. Each of the cell lines was transfected with control and Notch3 siRNAs. The cells were incubated with the transfection mixture for 24 hours in a humidified, 37° C., 5% CO2 incubator. After 24 hours, cells were trypsinized and plated for assessment using MTS cellular viability indicator (Promega, Madison, Wis.).
(§3) Depending on the cell line, cells were then seeded at a density of 2,500 to 5,000 cells per well 24 hours before treatment. Cells were treated with 3-fold serially diluted humanized anti-Notch3 ADCs in triplicates at 10 concentrations (range 0-30 μg Ab/ml). […] For experiments with 2 individual repeats, average IC50 values were calculated along with standard error of the mean (S.E.M.). Western blot analysis on extracts prepared from control and Notch3 siRNA-treated cells was performed to confirm that Notch3 knockdown occurred for up to 144 hours (data not shown). Cell lines that expressed Notch3 (herein termed control siRNA) or had reduced Notch3 expression after siRNA knockdown (herein termed Notch3 siRNA) were cultured with increasing concentrations of humanized anti Notch3 ADCs. As a specificity control for the anti-Notch3 ADCs, non-targeted control-ADCs (huNeg8.8-ADCs) were also tested on the same cell lines. After four days, viability of each culture was assessed. IC50 values were calculated by logistic non-linear regression, model #203 with XL fit v4.2 (IDBS, Guildford, Surry, UK) and presented as ng Ab/mL. The drug antibody ratio (DAR) is also provided.

Assay [2] deals with T1, MDA-MB-468/hNotch3. The assay can be described thus: Cytotoxicity (MTS) after control or Notch3 siRNA, MDA-MB-468/hNotch3. The format is cell-based. As to conditions: 96 hours, LP = lacked potency. How it is done:
as §2
as §3, with “As a specificity control for the anti-Notch3 ADCs, non-targeted control-ADCs (huNeg8.8-ADCs) were also tested on the same cell lines.” left out, “The drug antibody ratio (DAR) is also provided.” left out

Where “and” joins values, the source holds several entries; their conditions need not be identical. Equal entries are not always repeated.

T1 sequence (Q9UM47 40-2321): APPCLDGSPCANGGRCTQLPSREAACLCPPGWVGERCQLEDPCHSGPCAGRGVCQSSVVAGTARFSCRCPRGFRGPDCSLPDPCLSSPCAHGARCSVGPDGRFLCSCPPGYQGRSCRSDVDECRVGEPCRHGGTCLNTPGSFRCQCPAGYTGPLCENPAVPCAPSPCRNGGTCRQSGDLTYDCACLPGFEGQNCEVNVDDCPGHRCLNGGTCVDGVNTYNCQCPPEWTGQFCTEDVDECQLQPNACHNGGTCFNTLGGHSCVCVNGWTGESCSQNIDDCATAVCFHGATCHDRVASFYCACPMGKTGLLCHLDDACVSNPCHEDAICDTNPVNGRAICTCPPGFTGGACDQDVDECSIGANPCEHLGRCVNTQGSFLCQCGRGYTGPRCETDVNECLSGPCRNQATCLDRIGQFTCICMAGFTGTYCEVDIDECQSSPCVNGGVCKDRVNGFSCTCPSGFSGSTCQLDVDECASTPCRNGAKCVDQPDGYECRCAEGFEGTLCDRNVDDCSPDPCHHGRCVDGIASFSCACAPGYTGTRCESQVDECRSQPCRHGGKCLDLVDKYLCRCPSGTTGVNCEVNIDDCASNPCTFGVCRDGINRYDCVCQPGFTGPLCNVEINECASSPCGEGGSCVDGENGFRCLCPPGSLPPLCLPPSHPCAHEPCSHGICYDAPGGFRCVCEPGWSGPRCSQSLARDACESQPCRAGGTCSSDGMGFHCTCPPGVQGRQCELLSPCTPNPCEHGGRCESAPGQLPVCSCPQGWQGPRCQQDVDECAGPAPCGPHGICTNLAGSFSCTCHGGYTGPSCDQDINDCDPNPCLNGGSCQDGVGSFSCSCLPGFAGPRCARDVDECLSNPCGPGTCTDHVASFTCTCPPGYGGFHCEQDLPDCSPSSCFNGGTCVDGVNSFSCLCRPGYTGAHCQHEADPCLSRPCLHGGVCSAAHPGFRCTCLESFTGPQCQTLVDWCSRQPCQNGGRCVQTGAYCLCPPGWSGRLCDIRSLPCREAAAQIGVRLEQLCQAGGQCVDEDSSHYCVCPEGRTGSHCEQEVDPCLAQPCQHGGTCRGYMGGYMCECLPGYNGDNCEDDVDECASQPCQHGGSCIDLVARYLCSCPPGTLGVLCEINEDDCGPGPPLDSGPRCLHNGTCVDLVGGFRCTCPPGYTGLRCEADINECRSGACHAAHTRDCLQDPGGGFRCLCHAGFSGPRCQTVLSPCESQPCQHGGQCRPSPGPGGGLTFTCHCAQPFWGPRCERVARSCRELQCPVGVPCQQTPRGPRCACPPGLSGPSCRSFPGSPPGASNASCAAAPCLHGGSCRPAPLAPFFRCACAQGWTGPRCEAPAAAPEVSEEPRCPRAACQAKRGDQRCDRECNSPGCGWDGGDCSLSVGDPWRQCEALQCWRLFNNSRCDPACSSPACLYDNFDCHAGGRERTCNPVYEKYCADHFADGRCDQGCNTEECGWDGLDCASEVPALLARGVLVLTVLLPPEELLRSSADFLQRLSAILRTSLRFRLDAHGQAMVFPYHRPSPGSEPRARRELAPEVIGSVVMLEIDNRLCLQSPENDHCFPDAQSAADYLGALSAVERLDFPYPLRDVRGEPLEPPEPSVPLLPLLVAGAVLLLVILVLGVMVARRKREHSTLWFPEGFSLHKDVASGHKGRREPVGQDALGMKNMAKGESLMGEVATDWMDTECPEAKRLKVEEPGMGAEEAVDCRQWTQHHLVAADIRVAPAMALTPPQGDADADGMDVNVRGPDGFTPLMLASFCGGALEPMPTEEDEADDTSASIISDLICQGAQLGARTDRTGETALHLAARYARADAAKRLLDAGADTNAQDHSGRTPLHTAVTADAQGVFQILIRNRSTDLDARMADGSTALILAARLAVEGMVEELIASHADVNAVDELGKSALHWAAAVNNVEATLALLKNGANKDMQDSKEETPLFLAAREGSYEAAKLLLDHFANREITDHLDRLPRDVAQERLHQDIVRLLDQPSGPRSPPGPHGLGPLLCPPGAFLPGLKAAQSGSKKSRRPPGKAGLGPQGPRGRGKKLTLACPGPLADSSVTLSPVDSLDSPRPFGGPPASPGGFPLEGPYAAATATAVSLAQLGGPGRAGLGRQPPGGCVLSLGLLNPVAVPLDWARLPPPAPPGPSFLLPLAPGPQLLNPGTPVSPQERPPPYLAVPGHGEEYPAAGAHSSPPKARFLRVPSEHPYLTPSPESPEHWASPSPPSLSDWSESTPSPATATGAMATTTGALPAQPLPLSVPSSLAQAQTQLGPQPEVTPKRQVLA
T2 sequence (Q9UM47 40-2321): as above

B1: hu28-vc0101: hu28 conjugated to vc0101 linker-payload (conjugate)
heavy: EVQLVESGGGLVQPGGSLRLSCAASGFTFRDYGMTWVRQAPGKGLEWVAYISSGSNYIYYAEAVKGRFTISRDNAKNSLYLQMNSLRAEDTAVYYCARRGPFVLDAWGQGTLVTVSS[letters of human IgG1 constant region omitted]
light: DIQMTQSPSSLSASVGDRVTITCKASQSINRYLHWYQQKPGKAPKLLIYNANGLQTGVPSRFSGSGSGTDFTLTISSLQPEDFATYYCLQHNTWPDTFGGGTKVEIKRTVAAPSVFIFPPSDEQLKSGTASVVCLLNNFYPREAKVQWKVDNALQSGNSQESVTEQDSKDSTYSLSSTLTLSKADYEKHKVYACEVTHQGLSSPVTKSFNRGEC
Regarding B1, the “IC50 (ng Ab/mL), OVCAR3” value in the assay with OVCAR3 (ovarian cancer) is 306 ng Ab/mL. Also, the “IC50 (ng Ab/mL), MDA-MB-468/hNotch3” value with MDA-MB-468/hNotch3 [1] is 3.2 ng Ab/mL and 3 ng Ab/mL. Further, in the assay with OVCAR3, the “IC50 (ng Ab/mL) ± S.E.M., OVCAR3 Control siRNA” value is 684 ± 183 ng Ab/mL and the “IC50 (ng Ab/mL) ± S.E.M., OVCAR3 Notch3 siRNA” value is 1994 ± 262 ng Ab/mL. Further, the “IC50 (ng Ab/mL) ± S.E.M., MDA-MB 468/hNotch3 Control siRNA” value with MDA-MB-468/hNotch3 [2] amounted to 3.0 ng Ab/mL. In the assay with MDA-MB-468/hNotch3 [2] (Notch3 siRNA knockdown), the “IC50 (ng Ab/mL) ± S.E.M., MDA-MB 468/hNotch3 Notch3 siRNA” value was determined as 3340 ng Ab/mL.

B2: hu28-vc6780 (conjugate)
heavy: EVQLVESGGGLVQPGGSLRLSCAASGFTFRDYGMTWVRQAPGKGLEWVAYISSGSNYIYYAEAVKGRFTISRDNAKNSLYLQMNSLRAEDTAVYYCARRGPFVLDAWGQGTLVTVSS[letters of human IgG1 constant region omitted]
light: DIQMTQSPSSLSASVGDRVTITCKASQSINRYLHWYQQKPGKAPKLLIYNANGLQTGVPSRFSGSGSGTDFTLTISSLQPEDFATYYCLQHNTWPDTFGGGTKVEIKRTVAAPSVFIFPPSDEQLKSGTASVVCLLNNFYPREAKVQWKVDNALQSGNSQESVTEQDSKDSTYSLSSTLTLSKADYEKHKVYACEVTHQGLSSPVTKSFNRGEC
On to B2, for which, in the assay on OVCAR3 (ovarian cancer), the “IC50 (ng Ab/mL), OVCAR3” value came to 17 ng Ab/mL. Further, the “IC50 (ng Ab/mL), MDA-MB-468/hNotch3” value in the assay with MDA-MB-468/hNotch3 [1] is 1.3 ng Ab/mL and 3 ng Ab/mL. Further, in the assay with OVCAR3, the “IC50 (ng Ab/mL) ± S.E.M., OVCAR3 Control siRNA” value came out at 189 ± 6.0 ng Ab/mL and the “IC50 (ng Ab/mL) ± S.E.M., OVCAR3 Notch3 siRNA” value is listed as 6100 ± 200 ng Ab/mL. In addition, in the assay with MDA-MB-468/hNotch3 [2], the “IC50 (ng Ab/mL) ± S.E.M., MDA-MB 468/hNotch3 Control siRNA” value was 2.0 ng Ab/mL.
